{"source": "the supplement of paper PMC10600219", "note": "Structures can show the parent of a compound that is named as a salt. Over roughly 2,800 compounds, “cell viability relative to vehicle” has its median near 1.1; the lowest 2% begin near 0.19. The list shows a part of the results.", "data": [{"tested_on": "NCI-H2228 parental", "assay": "cell viability relative to vehicle (fraction of vehicle); NCI-H2228 is an ALK-positive lung cancer line and DTP means drug-tolerant persister; higher = less growth inhibition", "conditions": "100 nM; treatment time 6 days", "in_short": "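Values give cell viability as a fraction of vehicle-treated cells. Parental and drug-tolerant persister NCI-H2228 cells (persisters made with 1000 nM of a targeted drug for 13 days) were exposed in 384-well plates to the 3114-agent TargetMol anti-cancer compound library at 100 nM, with DMSO as vehicle. ATP was then read after 6 days by the CellTiter-Glo 3D Cell Viability Assay.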", "values": [{"smiles": "Cc1sc2c(c1C)C(c1ccc(Cl)cc1)=N[C@@H](CC(N)=O)c1nnc(C)n1-2", "cell viability": 0.729}, {"smiles": "N[C@@H]1C[C@H]1c1ccccc1", "note": "[Tranylcypromine (2-PCPA) hydrochloride]", "cell viability": 1.04}, {"smiles": "CC1(C)C(=O)N(c2ccc(C#N)c(C(F)(F)F)c2)C(=O)N1CCCCO", "cell viability": 1.27}, {"smiles": "Clc1ccc(OC[C@H]2CCN2)cn1", "note": "[Tebanicline hydrochloride]", "cell viability": 1.12}, {"smiles": "COc1ccc(N(C(=O)Oc2c(C)cccc2C)c2ccnc(Nc3ccc(N4CCN(C)CC4)cc3)n2)c(OC)c1", "cell viability": 0.952}, {"smiles": "COC1=C[C@@H]2[C@@H]3Cc4ccc(OC)c(O)c4[C@]2(CCN3C)CC1=O", "note": "[Sinomenine hydrochloride]", "cell viability": 1.08}, {"smiles": "C/C(=C\\c1csc(C)n1)[C@@H]1C[C@@H]2O[C@@H]2CCC[C@H](C)[C@H](O)[C@@H](C)C(=O)C(C)(C)[C@@H](O)CC(=O)O1", "note": "[Epothilone A]", "cell viability": 0.0991}, {"smiles": "CN1[C@@H]2C[C@@H](OC(=O)[C@H](CO)c3ccccc3)C[C@H]1[C@@H]1O[C@@H]12", "note": "[Scopolamine HBr]", "cell viability": 1.07}, {"smiles": "CCOC(=O)c1cncn1[C@H](C)c1ccccc1", "note": "[Etomidate]", "cell viability": 0.992}, {"smiles": "CNC(=O)Oc1cccc2ccccc12", "note": "[Carbaryl]", "cell viability": 0.859}, {"smiles": "CC(O)(CS(=O)(=O)c1ccc(F)cc1)C(=O)Nc1ccc(C#N)c(C(F)(F)F)c1", "note": "(configuration not stated) [Bicalutamide]", "cell viability": 1.18}, {"smiles": "CN1CCc2cc3c(cc2C1C1OC(=O)c2c1ccc1c2OCO1)OCO3", "note": "(single isomer, unassigned; (+)) [(+)-Bicuculline]", "cell viability": 1.16}, {"smiles": "NCC1(CC(=O)O)CCCCC1", "note": "[Gabapentin]", "cell viability": 1.11}, {"smiles": "O=c1cccc2n1C[C@@H]1CNC[C@H]2C1", "note": "[Cytisine]", "cell viability": 1.18}, {"smiles": "O=C([O-])C(Cl)Cl.[Na+]", "note": "[Sodium Dichloroacetate]", "cell viability": 1.09}, {"smiles": "CO[C@H]1C[C@H](O[C@H]2CC[C@]3(C)[C@H]4CC[C@]5(C)[C@@H](C6=CC(=O)OC6)CC[C@]5(O)[C@@H]4CC[C@]3(O)C2)O[C@H](C)[C@H]1O[C@@H]1O[C@H](CO)[C@@H](O)[C@H](O)[C@H]1O", "note": "[Periplocin]", "cell viability": 0.315}, {"smiles": "C[C@]12CC[C@H](O)C[C@H]1CC[C@@H]1[C@@H]2CC[C@]2(C)[C@@H](c3ccc(=O)oc3)C[C@H]3O[C@]132", "note": "[Resibufogenin]", "cell viability": 1.03}, {"smiles": "CC(=O)O[C@H]1C(=O)[C@@]2(C)[C@H]([C@H](OC(=O)c3ccccc3)[C@]3(O)C[C@H](O)C(C)=C1C3(C)C)[C@]1(OC(C)=O)CO[C@@H]1C[C@@H]2O", "note": "[Baccatin III]", "cell viability": 0.968}, {"smiles": "CC(C)(C)c1cc(C=C(C#N)C#N)cc(C(C)(C)C)c1O", "note": "[Tyrphostin 9]", "cell viability": 1.04}, {"smiles": "O=C(O)c1nn(Cc2ccc(Cl)cc2Cl)c2ccccc12", "note": "[Lonidamine]", "cell viability": 0.993}, {"smiles": "COc1ccc2c(c1OC)CN1CCc3cc4c(cc3C1C2)OCO4", "note": "(configuration not stated) [Tetrahydroberberine THB]", "cell viability": 1.1}, {"smiles": "O=C(O)CNC(=O)C1C(=O)N(C2CCCCC2)C(=O)N(C2CCCCC2)C1=O", "note": "[Daprodustat]", "cell viability": 1.04}, {"smiles": "CN(C(=O)/C=C/c1ccoc1)[C@@H]1CC[C@@]2(O)[C@H]3Cc4ccc(O)c5c4[C@@]2(CCN3CC2CC2)[C@H]1O5", "note": "[Nalfurafine hydrochloride]", "cell viability": 0.993}, {"smiles": "N#C[C@H](O[C@@H]1O[C@H](CO[C@@H]2O[C@H](CO)[C@@H](O)[C@H](O)[C@H]2O)[C@@H](O)[C@H](O)[C@H]1O)c1ccccc1", "note": "[Amygdalin]", "cell viability": 1.26}, {"smiles": "COc1cc2c(c(OC)c1OC)-c1ccc(OC)c(=O)cc1[C@@H](NC(C)=O)CC2", "note": "[Colchicine]", "cell viability": 0.305}, {"smiles": "CN1C[C@H](CNC(=O)OCc2ccccc2)C[C@@H]2c3cccc4c3c(cn4C)C[C@H]21", "note": "[Metergoline]", "cell viability": 1.07}, {"smiles": "CC(=O)O[C@H]1CC[C@@]2(C)C(=CC[C@@H]3[C@@H]2CC[C@]2(C)C(=O)CC[C@@H]32)C1", "note": "[Dehydroepiandrosterone acetate]", "cell viability": 1.15}, {"smiles": "CC(C)OC(=O)[C@H](C)N[P@](=O)(CO[C@H](C)Cn1cnc2c(N)ncnc21)Oc1ccccc1", "note": "[Tenofovir alafenamide]", "cell viability": 1.22}, {"smiles": "COc1cc([C@@H]2c3cc4c(cc3[C@H](O)[C@H]3COC(=O)[C@H]23)OCO4)cc(OC)c1O", "note": "[4'-Demethylpodophyllotoxin]", "cell viability": 0.68}, {"smiles": "Oc1cc(O)cc(/C=C/c2c(O)cccc2O)c1", "note": "[Gnetol]", "cell viability": 1.05}, {"smiles": "CC(C)c1cccc(C(C)C)c1O", "note": "[Propofol]", "cell viability": 0.976}, {"smiles": "C[C@H](CS(C)(=O)=O)n1ccc2c(C(F)(F)F)c(C#N)ccc21", "cell viability": 1.12}]}]}
